Results taken from PubChem BioAssay AID493208 (National Center for Advancing Translational Sciences (NCATS), 2011).
Screen size: about 44,000 compounds; about 340 (0.77%) were called active. Roughly 5% stayed inconclusive and do not appear here. Calls follow the shape of the dose curve; as a rule, active = well fitted inhibition curve with a large enough effect; inconclusive = small, poorly fitted or top-dose-only effect; inactive = flat fitted curve, though single readings scatter. The list shows a part of the results.

Test: Acumen qHTS Assay for Inhibitors of the mTORC1 Signaling Pathway in MEF (Tsc2-/-, p53-/-) Cells: Sytravon;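 also: plate controls were DMSO for no effect and rapamycin for full effect; nearly all actives have a fitted effect of over 50% in size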
Conditions: phospho-rpS6 immunofluorescence/PI, 24 h; series mostly up to 38.3 µM; activity change, negative = inhibition: at the top concentration
Outline: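 Immunofluorescence of rpS6 phosphorylation in Tsc2-/-, p53-/- MEFs after 24 h compound exposure, normalized to propidium iodide signal. Activity is expressed as % positive cells, thresholded with 7.5 nM rapamycin.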

Activity change, negative = inhibition, inactive:
COC(=O)C(Cc1c[nH]c2ccccc12)NC(=O)COc1cccc(C)c1 (centres undefined) 13.7%
COC(=O)c1sccc1S(=O)(=O)N1CCN(c2cc(Cl)ccc2C)CC1 -22.7%
COCCNC(=O)CCn1c(=O)c2cc(OC)c(OC)cc2n(CC(=O)Nc2ccc(Cl)cc2F)c1=O -5.73%
Cc1ccc(-c2n[nH]c3c2C(c2ccc(C(C)(C)C)cc2)NC3=O)cc1 (centres undefined) -0.0043%
Cc1nn(S(=O)(=O)c2ccc(C(C)(C)C)cc2)c(C)c1S(=O)(=O)N1CCCCCC1 0.852%
Cc1ccc(NC(=O)c2oc3ccc(S(=O)(=O)N4CCC5(CC4)OCCO5)cc3c2C)cc1C 2.56%
CCC1CN(C(=O)N2CCC(C(=O)NCc3ccc(N(C)C)cc3)CC2)c2ccccc2O1 (centres undefined) -0.588%
COc1cccc(Nc2ccc3cc(S(=O)(=O)N4CCC(C)CC4)ccc3n2)c1 -3.64%
CCCCC(=O)NCc1nc2cccnc2n1Cc1ccc(OC)cc1 -7.98%
CCCOc1cccc(C(=O)Nc2cccc(-c3nc4ncccc4o3)c2C)c1 -0.133%
CCOC(=O)c1ccc(N2CCN(c3cc(C)ccc3C)CC2)c(NC(=O)Nc2ccc(CC)cc2)c1 6.72%
CC(=O)c1cccc(NC(=O)C2CCN(C(=O)c3cnn(-c4ccccc4)c3-n3cccc3)CC2)c1 -4.63%
Cc1c(C(=O)NCc2ccccc2Cl)sc2nc3n(c(=O)c12)CCCCC3 -2.22%
Cc1cn2c(=O)cc(COC(=O)c3cccc(NC(=O)c4ccc(C(C)(C)C)cc4)c3)nc2s1 7.95%
CCn1cc2nc(SCC(=O)Nc3ccc(OC)c(OC)c3)n(Cc3ccc(Cl)cc3)c(=O)c2n1 -6.19%
COc1ccc(-c2cc(-c3ccc(F)cc3)nc3c2COc2ccc(F)cc2-3)cc1 -1.54%
CCOc1ccc(-n2c(/C=C/c3cccc(F)c3)nc3cc(OC)c(OC)cc3c2=O)cc1 7.95%
COc1ccc(-c2oc3ncn4nc(-c5ccccc5O)nc4c3c2-c2ccc(OC)cc2)cc1 -13.4%
Cc1ccccc1-c1nc2scc(CCNS(=O)(=O)c3ccccc3)n2n1 -11%
Cc1nn2c(=O)cc(COC(=O)c3cccc(NC(=O)CCc4ccccc4)c3)nc2s1 -10.3%
O=C1CN(C(=O)COc2ccc(Cl)cc2)C(c2ccccc2)c2cc(Br)ccc2N1 (centres undefined) 0.936%
O=C(NCc1ccccc1)C1CCCN(S(=O)(=O)c2cccc3nsnc23)C1 (centres undefined) -8.95%
CC(C)(C)OC(=O)N1CCC(c2c(C(=O)Nc3ccc4c(c3)OCCO4)cnn2-c2ccc(Cl)cc2)CC1 2.18%
CCOc1ccc(NC(=O)CN2C(=O)CC(C)Sc3ccccc32)cc1 (centres undefined) 0.632%
Cc1ccc2c(c1)C(Cc1ccccc1F)C(=O)N2 (centres undefined) -9.93%
COc1ccc(CCNC(=O)C(CC(C)C)N2Cc3ccccc3C2=O)c(OC)c1OC (centres undefined) -4.19%
CCn1cc(CCC(=O)NCc2ccc(C)cc2)c2ccccc21 0.0273%
COc1cc2c(=O)n(Cc3ccccc3Cl)c(=O)n(CC(=O)Nc3ccc(C)c(C)c3)c2cc1OC 2.07%
CC(C)Oc1ccccc1C1C=C(C(=O)O)Nc2ncnn21 (centres undefined) -26.2%
COc1ccc(CCn2c3c(c(=O)[nH]c2=O)C(NC(=O)c2ccccc2F)(C(F)(F)F)C(=O)N3)cc1OC (centres undefined) -9.92%
COc1ccc(C)cc1NC(=O)C1CCN(S(=O)(=O)c2ccc3[nH]c(=O)oc3c2)CC1 0%
Cc1cccc(C(=O)Nc2cc(-c3nc4cccnc4s3)ccc2C)c1 6.04%
COc1ccc(NC(=O)CSc2nc3ccccc3n2CC(=O)N2CCCCC2C)cc1 (centres undefined) 14.3%
COc1ccc(-c2onc(C)c2C)cc1S(=O)(=O)NCc1ccc(C)o1 -10.4%
CCOc1cccc(CC(=O)NCc2ccc3c(c2)CCN3C(C)=O)c1OCC -0.0543%
CCC(C)NC(=O)CCc1c(C)nc2c(c(C)nn2-c2ccc(C)cc2)c1C (centres undefined) 2.98%
Cc1c(Cl)cccc1NC(=O)CC(c1ccc(F)cc1)N1Cc2ccccc2C1=O (centres undefined) -9.06%
COCC(C)NC(=O)c1cc2c(=O)n3cccc(C)c3nc2s1 (centres undefined) -6.55%
CCOC(=O)c1ccc(-c2ccc(/C=C(\C#N)c3nc4ccc(C)cc4[nH]3)o2)cc1 21.8%
CCN(c1ccc(Cl)cc1)S(=O)(=O)c1nnc(NC(=O)c2ccccc2C)s1 -19%
O=C(NCCCc1nc2ccccc2n1Cc1ccccc1Cl)c1ccco1 -0.199%
CC(CNC(=O)C1CCN(C(=O)N2CCOc3ccc(Cl)cc32)CC1)c1ccccc1 (centres undefined) -1.45%
O=[N+]([O-])c1cc(-c2nc(-c3ccco3)no2)ccc1NCc1ccccc1 -0.286%
CCc1ccc(Sc2cc(C(=O)O)c3ccccc3n2)cc1 -0.0414%
COc1ccc(Cn2c(CO)cnc2SCc2ccc(F)cc2)cc1 -8.68%
COc1ccc(-n2nc(C(=O)N(C)c3cc(Cl)ccc3OC)c3c4ccccc4n(C)c3c2=O)cc1 -0.247%
COc1ccc(S(=O)(=O)c2nnn(-c3ccccc3F)c2C)cc1 -1.86%
Cc1nn(CCCC(=O)NCc2ccc(OC(C)C)cc2)c(=O)c2c1sc1ccccc12 0.47%
Cc1ccc(Cc2nc3ccccc3nc2SCC(=O)N2CCN(c3ccccc3)CC2)cc1 10.6%
Cc1ccc(NC(=O)CC2Nc3cc(C)c(C)cc3NC2=O)c(C)c1 (centres undefined) 1.81%
N#CC1=C2SCN(C3CCCCC3)CN2C(=O)CC1c1c(F)cccc1Cl (centres undefined) -0.696%
Cc1ccc(S(=O)(=O)c2[nH]c(-c3ccccc3)nc2SCCC(=O)O)cc1 -0.332%
Cc1ccc(N2CC(NC(=O)CCc3ccccc3)CC2=O)cc1C (centres undefined) -4.85%
CCCn1c(=N)n(CC(O)COc2ccccc2OC)c2ccccc21 (centres undefined) -6.84%
Cc1cccc(CCNC(=O)c2ccc(CSCc3cccc(Cl)c3)o2)c1 3.09%
Cc1cccc(N(Cc2cc3ccccc3[nH]c2=O)C(=O)c2cccc(Cl)c2)c1 6.87%
CCOc1ccc(NC(=O)c2c(Nc3ccccc3C)sc(C(=O)c3ccc(Cl)cc3)c2N)cc1 -6.88%
Cc1nn(CC(=O)N2CCN(c3cccc(C(F)(F)F)c3)CC2)c(=O)c2cc3sccc3n12 1.19%
NC(=O)c1ccc(NC(=O)C2CCN(S(=O)(=O)Cc3ccccc3)CC2)cc1 2.14%
CCCN1CCN(c2cc3c(cc2F)c(=O)c(S(=O)(=O)c2ccc(CC)cc2)cn3CC)CC1 -3.52%
CCn1ccc2c(OCC(=O)NCc3ccccc3)cccc2c1=O 0.477%
CC1Cn2c(C(=O)NCc3cccc(Br)c3)cc3cccc(c32)S1 (centres undefined) -5.79%
Cc1cccc(-c2nc3c(cnn3-c3ccccc3)c(=O)n2-c2ccc(Br)cc2)c1 9.59%
COc1ccc2oc(-c3ccc(C)c(NC(=O)c4ccc(-c5ccccc5[N+](=O)[O-])o4)c3)nc2c1 -0.128%
Cc1ccc(C(=O)O)cc1NC1(c2ccccc2)C(=O)c2ccccc2C1=O 4.68%
Cc1c(Cl)cccc1NC(=O)CSc1nc2ncccc2o1 3%
COc1ccccc1CNC(=O)C1CCCN(c2nnc(C)c3c(C)n(-c4ccccc4)nc23)C1 (centres undefined) 0.738%
O=C(CCSCc1cccc(Cl)c1)NCc1ccc(F)cc1Cl 5.76%
CCc1ccccc1NC(=O)c1sc2nc(C)cc(COC)c2c1N -13.1%
Cc1ccc2[nH]c(CSc3nnc(NC(=O)c4ccccc4F)s3)cc(=O)c2c1 0.249%
C=Cc1ccc(Cn2c(=O)cc(C)c3c(C)nn(-c4ccccc4)c32)cc1 -1.24%
O=C(NC1(C(F)(F)F)C(=O)Nc2c1c(=O)[nH]c(=O)n2-c1ccccc1)c1ccccc1Cl (centres undefined) 1.66%
COc1cc(OC)cc(-c2cc3nc(C)c(CCC(=O)Nc4ccc(C(C)=O)cc4)c(C)n3n2)c1 -0.0451%
CSCCC(NS(=O)(=O)c1ccc2c(c1)oc(=O)n2C)C(=O)Nc1ccc(Cl)cc1 (centres undefined) -0.727%
COc1ccc(OCC(=O)N(Cc2cccs2)c2ccc(OC)cc2)cc1 -8.59%
COCc1cc(C)nc2sc3c(c12)NC(c1ccc(O)c(OC)c1)N(c1ccccc1)C3=O (centres undefined) 2.46%
COc1cc2c(C(=O)N3CCN(c4cccc(C(F)(F)F)c4)CC3)cn(CC(C)C)c(=O)c2cc1OC -0.133%
COc1ccc2c(c1)cc1c(=O)n(CC(=O)NCCCOC(C)C)nc(C)n12 -1.38%
CCn1c(C)c(C)c2cc(C(=O)NCc3ccc(OC(C)C)cc3)ccc21 7.07%
COc1ccc(NC(=O)Cn2c(=O)n(Cc3ccc4c(c3)OCO4)c(=O)c3ccc(C(=O)NC4CCCCC4)cc32)cc1 -11.5%
COc1ccc(-c2noc(N3CCC(C(=O)N4CCN(c5ccccc5F)CC4)CC3)n2)cc1 -8.97%
CCOCCCNc1nc2ccccc2n2c(CC)nnc12 0.828%
COc1ccccc1NC(=O)CSc1nc(-c2ccc(C)cc2)nc2c1Cc1c(CO)cnc(C)c1O2 -2.65%
Cc1nn2c(=O)cc(COC(=O)c3ccc(NC(=O)c4cccc(Br)c4)cc3)nc2s1 0%
COc1ccc(-c2cn3nc(N4CCCC(C(=O)Nc5ccccc5OC)C4)sc3n2)cc1 (centres undefined) -0.842%
COC(=O)c1ccccc1NC(=O)Cn1c(=O)n(CCC(=O)NCc2ccccc2OC)c(=O)c2ccccc21 -0.0981%
Cc1ccc(Cl)cc1NC(=O)CN1C(=O)CSc2ccc(S(=O)(=O)N3CCCC3)cc21 -9.17%
Cc1cccc(NC(=O)CCN2CCN(c3ccccc3F)CC2)c1 5.56%
CCOC(=O)c1c(S(=O)(=O)NCC(=O)N2CCN(c3cc(C)ccc3C)CC2)c(C)n(C)c1C -7.55%
Cc1cccc(N2CCN(c3ccc(C(=O)O)cc3NC(=O)c3cccc(Cl)c3)CC2C)c1 (centres undefined) 2.75%
CCc1ccc(-c2nc(SCC(=O)NCC3CCCO3)c(-c3ccc(C)cc3)[nH]2)cc1 (centres undefined) 6.8%
Cc1cccc(C)c1NC(=O)Cn1c(=O)n(CCCS(=O)(=O)C2CCCCC2)c(=O)c2ccccc21 -0.843%
CCCN(C(=O)Cn1ncc2c1-c1ccccc1OC2)c1cccc(C)c1 -7%
CCOC(=O)C1CCN(c2c(C(=O)c3ccc(OC)cc3)cnc3ccccc23)CC1 -2.07%
